{"source": "ChEMBL document CHEMBL4888484", "about": "“Replenishing the malaria drug discovery pipeline: Screening and hit evaluation of the MMV Hit Generation Library 1 (HGL1) against asexual blood stage Plasmodium falciparum ,using a nano luciferase reporter read-out” (2022)", "note": "Hit rate of the full screen: of about 150,000 compounds, about 540 (0.36%) showed an effect of 50% or more. Some of the results follow."}
{"system": "Plasmodium falciparum", "test": "Primary screen in NF54 nanoGlo assay, in single point, at 2uM, 72h; a lower Z score goes with more inhibition", "type": "functional, Erythrocyte", "settings": "timepoint 72 hour", "units": {"% Inhibition": "%"}}
{"smiles": "CCCn1cc(C(=O)N(C)Cc2ccc(C)o2)c(C)n1", "% Inhibition": 0, "Z score": -0.08}
{"smiles": "COc1ccc(-c2noc(C(C)OCC3CCCCO3)n2)cc1OC", "note": "(stereo not given)", "% Inhibition": -8, "Z score": 1.09}
{"smiles": "CN1CCN(c2ccccc2NC(=O)c2cnn(C)c2)CC1", "% Inhibition": 0, "Z score": 0.05}
{"smiles": "CC12CC(CN1c1ccc(S(C)(=O)=O)cc1)C2", "% Inhibition": -12, "Z score": 1.06}
{"smiles": "CN(CCC(=O)N(C)C)Cc1nccn1CC(F)(F)F", "% Inhibition": -15, "Z score": 2.75}
{"smiles": "O=C(c1ccsc1)N1CCN(C(=O)c2ccc3nccn3c2)CC1", "% Inhibition": -13, "Z score": 1.99}
{"smiles": "CC1C(N(C)C)CCN1C(=O)c1ccn(C(C)C)n1", "note": "(stereo not given)", "% Inhibition": -18, "Z score": 1.98}
{"smiles": "Cc1nn(C)c(Cl)c1Cc1noc(C[C@H](C)n2ccnc2)n1", "% Inhibition": -4, "Z score": 0.58}
{"smiles": "Cc1nc(CS(=O)(=O)CC2CCCCC2)sc1C", "% Inhibition": -11, "Z score": 1.75}
{"smiles": "COc1cccc(N2CCN(C(=O)[C@H](C)N3Cc4ccccc4C3=O)CC2)c1", "% Inhibition": -14, "Z score": 1.79}
{"smiles": "CCS(=O)(=O)N1CCC(C(=O)N2CCC[C@H](C(C)C)CC2)CC1", "% Inhibition": -1, "Z score": 0.08}
{"smiles": "Cc1cc(CCNC(=O)N2CC3(CC=CC3)[C@@H]2C(C)C)on1", "% Inhibition": -17, "Z score": 1.52}
{"smiles": "Cc1ccccc1S(=O)(=O)N(CCCc1ccccc1)CC(=O)N1CCNCC1", "% Inhibition": 3, "Z score": -0.34}
{"smiles": "Cc1ccc(Oc2cccc(NC(=O)c3ccc(F)cc3F)c2)nn1", "% Inhibition": 12, "Z score": -1.6}
{"smiles": "COc1ccc(-c2coc3ccc(OCC(N)=O)cc23)cc1", "% Inhibition": -25, "Z score": 3.26}
{"smiles": "Cc1cc(C)c(CN[C@@H](C)CC(N)=O)c(C)c1", "% Inhibition": 2, "Z score": -0.25}
{"smiles": "O=C1c2ccccc2C(=O)N1C[C@H](O)COc1cccc2ccccc12", "% Inhibition": -11, "Z score": 1.42}
{"smiles": "Cc1cc(NC(=O)CNC2(c3cccc(Cl)c3)CC2)on1", "% Inhibition": 4, "Z score": -0.52}
{"smiles": "Cc1ccc(C)n1CCN1CCN(C(=O)C[C@@H]2N=C(O)c3ccccc3NC2=O)CC1", "% Inhibition": -3, "Z score": 0.43}
{"smiles": "Cc1noc(COCC(=O)Nc2cc(-c3cccc(F)c3F)n[nH]2)n1", "% Inhibition": 5, "Z score": -0.53}
{"smiles": "O=C(OCCF)N1CCOc2c1cccc2C(F)(F)F", "% Inhibition": -1, "Z score": 0.14}
{"smiles": "O=S(=O)(c1ccc2c(c1)CCC2)N1CCC[C@H](Cn2c(C3CC3)nc3cccnc32)C1", "% Inhibition": -4, "Z score": 0.56}
{"smiles": "Cc1ccc(S(=O)(=O)/N=C(\\CN2CCCC2)N2CCCCC2)cc1", "% Inhibition": -18, "Z score": 2.43}
{"smiles": "O=C(CC1CC1)N[C@@H](Cn1nccn1)c1ccccc1", "% Inhibition": -7, "Z score": 1.21}
{"smiles": "CCS(=O)(=O)CCNC(=O)c1nc(C)sc1C", "% Inhibition": -7, "Z score": 0.6}
{"smiles": "CCNc1ccnc(N2CCN(CC(=O)OC)C(=O)C2)n1", "% Inhibition": -3, "Z score": 0.57}
{"smiles": "CCc1cc(N2CCC[C@H]2C(=O)N(C)C)nc(-c2ccncc2)n1", "% Inhibition": 17, "Z score": -1.52}
{"smiles": "COc1ccc(N[C@H]2CCCN(c3ncncc3C(C)C)C2)cc1OC", "% Inhibition": 2, "Z score": -0.36}
{"smiles": "CCC1CCN(C(=O)c2sc3ncccc3c2N)CC1", "% Inhibition": -7, "Z score": 0.79}
{"smiles": "N#Cc1cnc2c(Cl)cccc2c1NCC1(CO)CCOCC1", "% Inhibition": -1, "Z score": 0.06}
{"smiles": "CCC1CN(Cc2csc(COc3ccc(Cl)cc3)n2)CCC1N", "note": "(stereo not given)", "% Inhibition": -3, "Z score": 0.27}
{"smiles": "O=C(Cc1noc2ccccc12)Nc1ccc(-c2cc[nH]n2)cc1", "% Inhibition": -7, "Z score": 1.06}
{"smiles": "Cc1nc2cc(N[C@@H](C(=O)N3CCCCC3)c3ccccc3)ccc2o1", "% Inhibition": -36, "Z score": 4.27}
{"smiles": "O=C1NC2(CCCCC2)C(=O)N1Cc1nc2ccccc2o1", "% Inhibition": -8, "Z score": 1.52}
{"smiles": "C[C@H]1COCCN1C(=O)c1nc(NCc2ccco2)ncc1Cl", "% Inhibition": 31, "Z score": -2.76}
{"smiles": "C[C@@H](C(=O)Nc1ccccc1NCC1CCCCC1)n1cncn1", "% Inhibition": -18, "Z score": 2.03}
{"smiles": "O=C(NCCn1ccc(-c2cccs2)n1)c1ccc(S(=O)(=O)N2CCOCC2)cc1", "% Inhibition": -22, "Z score": 2.79}
{"smiles": "NC(=O)COc1ccc([C@H]2CC(=O)Nc3cccc4c3c2cn4Cc2cccc(F)c2)cc1", "% Inhibition": -10, "Z score": 1.28}
{"smiles": "O=C(c1ccno1)N1CCOC[C@H](Oc2cnccn2)C1", "% Inhibition": 20, "Z score": -2.38}
{"smiles": "CC1CN(C(=O)Nc2ccccc2OC2CCOC2)C(C)CN1Cc1ccccc1", "note": "(stereo not given)", "% Inhibition": 2, "Z score": -0.16}
{"smiles": "CN(C)c1ccc(CN2CC[C@H](c3nnc(-c4ccco4)o3)C2)cc1", "% Inhibition": -12, "Z score": 1.96}
{"smiles": "COc1cccc([C@H]2C[C@H](N(C)S(=O)(=O)CC(C)(C)OC)C2)c1", "% Inhibition": -7, "Z score": 0.68}
{"smiles": "CCOc1ccc(NC(=O)C2[C@H]3C=C[C@@]4(O3)C(C(=O)NC3CCCCC3)N(CCc3ccccc3)C(=O)[C@@H]24)cc1", "note": "(stereo not given in full)", "% Inhibition": 16, "Z score": -2.43}
{"smiles": "Cc1nnsc1C(=O)Oc1ccc(C(C)C)cc1", "% Inhibition": -13, "Z score": 1.12}
{"smiles": "Cc1cc(C)cc(NC(=O)CC(=O)N[C@@H]2C[C@H]3C(=O)N(C)CC(=O)N3C2)c1", "% Inhibition": -4, "Z score": 0.58}
{"smiles": "O=C1CCNC(=O)N1Cc1ccc(-n2cccn2)cc1", "% Inhibition": -9, "Z score": 1.41}
{"smiles": "Cc1ccc(OCC(=O)Nc2noc(-c3ccc(F)cc3)n2)cc1", "% Inhibition": -8, "Z score": 1.23}
{"smiles": "Cc1nc(CCNC(=O)C[C@H](C)c2ccc(F)cc2F)cs1", "% Inhibition": -4, "Z score": 0.6}
{"smiles": "CCCCOCCN(CC#N)c1ccc(Br)cc1", "% Inhibition": -10, "Z score": 1.24}
{"smiles": "CC(C)C[C@H](NC(=O)OC(C)(C)C)c1nnc(S(=O)(=O)Cc2ccc(Cl)cc2)o1", "% Inhibition": -2, "Z score": 0.2}
{"smiles": "O=C(Cc1ccc(Cl)cc1)OCc1nnc(-c2ccccc2)o1", "% Inhibition": -2, "Z score": 0.29}
{"smiles": "c1cc2c3c(cccc3c1)NC1(CCCCC1)N2", "% Inhibition": -21, "Z score": 2.44}
{"smiles": "CC[C@H]1CN(C2=Nc3c(cnn3C(C)(C)C)CN2)CCO1", "% Inhibition": -12, "Z score": 1.14}
{"smiles": "CN1CC[C@@]2(CCC1=O)CN(S(=O)(=O)c1cccc(C#N)c1)CCN2C", "% Inhibition": 11, "Z score": -1.36}
{"smiles": "CCC(C)(CC)c1noc(C[C@H]2CCC(=O)NC2)n1", "% Inhibition": -3, "Z score": 0.5}
{"smiles": "COc1ccsc1C(=O)NC1CCCC1C(N)=O", "note": "(stereo not given)", "% Inhibition": 5, "Z score": -0.48}
{"smiles": "CN1C(=O)c2ccc(S(=O)(=O)N[C@H]3CCC[C@@H]3O)cc2C1=O", "% Inhibition": 26, "Z score": -2.98}
{"smiles": "COc1cc2ccccc2cc1C(=O)Nc1cc(-c2nc3ccccc3o2)ccc1C", "% Inhibition": -1, "Z score": 0.14}
{"smiles": "CCN1CCN(C(=O)c2cccc(Nc3c(Oc4ccc5c(c4)CCC5)cnn(-c4cccc(Cl)c4)c3=O)c2)CC1", "% Inhibition": -14, "Z score": 1.74}
{"smiles": "Cc1nc(-c2cc(-c3cnn(C)c3C)on2)n([C@H]2CCS(=O)(=O)C2)n1", "% Inhibition": -12, "Z score": 1.83}
{"smiles": "CC1(NC(=O)CC2(CS(C)(=O)=O)CC2)CCN(C(=O)OC(C)(C)C)CC1", "% Inhibition": -13, "Z score": 1.52}
{"smiles": "Cc1nn(-c2nc3ccccc3s2)c2c1[C@@H](c1ccc(F)cc1F)CC(=O)N2", "% Inhibition": -12, "Z score": 1.64}
{"smiles": "COc1cccc(-n2c(C)cc(C(=O)N3CCC(NC(N)=O)CC3)c2C)c1", "% Inhibition": -3, "Z score": 0.33}
{"smiles": "O=C(NCC1CCCCC1)c1cccs1", "% Inhibition": 0, "Z score": 0.02}
{"smiles": "C=C(C)[C@H](NC(N)=O)c1ccc(F)c(F)c1", "% Inhibition": -7, "Z score": 0.63}
{"smiles": "CC(C)CN1CCCn2nc(CNC(=O)c3cnn4ccn(C)c34)cc2C1", "% Inhibition": -6, "Z score": 0.68}
{"smiles": "COc1cccc(NS(C)(=O)=O)c1", "% Inhibition": 8, "Z score": -0.95}
{"smiles": "C[C@H]1CN(c2cccc(Cl)c2)C(=O)CN1Cc1nccn1C", "% Inhibition": -7, "Z score": 0.89}
{"smiles": "O=C(NCCOc1ccccc1)N1CCN(c2nccs2)CC1", "% Inhibition": 5, "Z score": -0.95}
{"smiles": "C[C@@H](c1ccon1)N(C)C(=O)c1ccc(Cl)cc1OCCCN", "% Inhibition": -10, "Z score": 1.52}
{"smiles": "CO[C@H]1C[C@@H](CNC(=O)N[C@H](C)c2ccc(F)cc2)C1", "% Inhibition": -16, "Z score": 1.7}
{"smiles": "CCN1C[C@H](CN(C)CC(=O)Nc2cc(OC)cc(OC)c2)Oc2ccccc21", "% Inhibition": -4, "Z score": 0.49}
{"smiles": "CN1C(=O)C[C@H](C(=O)NCC(C)(C)c2cccc(Cl)c2)[C@H]1c1nccn1C", "% Inhibition": 1, "Z score": -0.24}
{"smiles": "Cc1ccc(CN(C)C)cc1NC(=O)c1ccc2nncn2c1", "% Inhibition": -5, "Z score": 0.68}
{"smiles": "O=C(c1ccc(Cl)cc1OC1CCN(Cc2ccc(CO)o2)CC1)N1CCCCC1", "% Inhibition": 17, "Z score": -2.29}
{"smiles": "CS(=O)(=O)N1CCN(c2ccc3cc[nH]c3n2)CC1", "% Inhibition": -1, "Z score": 0.18}
{"smiles": "CC(=O)N1C[C@@H]2OCC(=O)N(Cc3ccccc3)[C@@H]2C1", "% Inhibition": 3, "Z score": -0.4}
{"smiles": "CCOc1ccc2c(C)c(C(=O)N3CC[C@](C)(O)[C@H](C)C3)oc2c1OCC", "% Inhibition": -2, "Z score": 0.22}
{"smiles": "CCn1cnnc1CNS(=O)(=O)[C@H]1C[C@@H]1c1ccccc1", "% Inhibition": -4, "Z score": 0.53}
{"smiles": "CC(=O)C(C(C)=O)C(NC(=O)c1cccnc1)(C(F)(F)F)C(F)(F)F", "% Inhibition": -9, "Z score": 1.39}
{"smiles": "O=S(=O)(CCc1ccccc1)N1CC[C@H](O)C1", "% Inhibition": 4, "Z score": -0.66}
{"smiles": "CCCS(=O)(=O)N(C)c1ccc(C)c(N(C)C)c1", "% Inhibition": 4, "Z score": -0.52}
{"smiles": "O=C1CN(C/C=C/c2ccccc2)CCN1c1ccc2cn[nH]c2c1", "% Inhibition": 2, "Z score": -0.21}
{"smiles": "Cc1cc(C(=O)N[C@H]2CC[C@H](Oc3ncccn3)CC2)no1", "% Inhibition": -7, "Z score": 1.23}
{"smiles": "CN(CC(=O)NC1CCS(=O)(=O)C1)C1CCCc2ccc(F)cc21", "note": "(stereo not given)", "% Inhibition": -14, "Z score": 1.88}
